In the supplement of paper PMC4604168 (melanoma cell lines) one finds cell count data, which are given here for 31 compounds.

The list shows a part of the results. Many values rest on one well or one pass, so single values are uncertain.
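Further: cell number obtained by counting DAPI-stained nuclei in high-throughput microscope images with image analysis software, screen run in 1,536-well plates.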

In the first assay the test system is RVH-421. As to the kind of experiment: cell count relative to DMSO control; melanoma cells; higher = more viable cells. As to conditions: library dose: low library concentration; 72 h.
The compound `Nc1ccn([C@@H]2O[C@H](CO)[C@@H](O)C2(F)F)c(=O)n1` [gemcitabine] + C/C(O)=C(\C#N)C(=O)Nc1cc(Br)ccc1Br [LFM-A13] (first compound 0.0004 µM, partner dose 2 µM) yielded a cell count of 102%.
The same measure, in the same setting: with `CC(C)C[C@H](NC(=O)[C@H](Cc1ccccc1)NC(=O)c1cnccn1)B(O)O` [Bortezomib] + C/C(O)=C(\C#N)C(=O)Nc1cc(Br)ccc1Br [LFM-A13] (first compound 0.001 µM, partner dose 2 µM) the figure was 72.5%.
`CO[C@H]1C[C@@H]2CC[C@@H](C)[C@@](O)(O2)C(=O)C(=O)N2CCCC[C@H]2C(=O)O[C@H]([C@H](C)C[C@@H]2CC[C@@H](OCCO)[C@H](OC)C2)CC(=O)[C@H](C)/C=C(\C)[C@@H](O)[C@@H](OC)C(=O)[C@H](C)C[C@H](C)/C=C/C=C/C=C/1C` [everolimus] + Cc1cc(SCc2sc(-c3ccc(C(F)(F)F)c(F)c3)nc2C)ccc1OCC(=O)O [GW0742] (first compound 0.02 µM, partner dose 2 µM) came in with a cell count of 119%.
In turn, `Nc1ccn([C@@H]2O[C@H](CO)[C@@H](O)C2(F)F)c(=O)n1` [gemcitabine] + O=C(Oc1ccc([N+](=O)[O-])cc1)N1CCC(C(O)(c2ccc3c(c2)OCO3)c2ccc3c(c2)OCO3)CC1 [JZL184] (first compound 0.0004 µM, partner dose 1 µM) had a cell count of 95.5%.
The same measure, in the same setting: the figure for `Cc1nc(Nc2ncc(C(=O)Nc3c(C)cccc3Cl)s2)cc(N2CCN(CCO)CC2)n1` [dasatanib] + Cc1cc(SCc2sc(-c3ccc(C(F)(F)F)c(F)c3)nc2C)ccc1OCC(=O)O [GW0742] (first compound 0.004 µM, partner dose 2 µM) is 81.7%; for `COCC[n+]1c2c(n(Cc3cnccn3)c1C)C(=O)c1ccccc1C2=O` + Cc1cc(SCc2sc(-c3ccc(C(F)(F)F)c(F)c3)nc2C)ccc1OCC(=O)O [GW0742] (first compound 0.0004 µM, partner dose 2 µM) it is 109%.
As for `Cc1cc(Nc2cc(N3CCN(C)CC3)nc(Sc3ccc(NC(=O)C4CC4)cc3)n2)n[nH]1` [Tozasertib] + C/C(O)=C(\C#N)C(=O)Nc1cc(Br)ccc1Br [LFM-A13] (first compound 0.006 µM, partner dose 2 µM), the cell count came out at 110%.
Still for that read-out and setting: the figure for `Cc1cc(Nc2cc(N3CCN(C)CC3)nc(Sc3ccc(NC(=O)C4CC4)cc3)n2)n[nH]1` [Tozasertib] + C[As](C)SC[C@H](NC(=O)CC[C@H](N)C(=O)O)C(=O)NCC(=O)O [Darinaparsin] (first compound 0.006 µM, partner dose 0.4 µM) is 93.9%; for `COc1ccc(COc2ccc(Cc3cnc(N)nc3N)cc2OC)cc1` + C/C(O)=C(\C#N)C(=O)Nc1cc(Br)ccc1Br [LFM-A13] (first compound 1 µM, partner dose 2 µM) it is 104%; for `O=C(O)c1ccc2c(c1)nc(Nc1cccc(Cl)c1)c1ccncc12` + O=C(Oc1ccc([N+](=O)[O-])cc1)N1CCC(C(O)(c2ccc3c(c2)OCO3)c2ccc3c(c2)OCO3)CC1 [JZL184] (first compound 0.4 µM, partner dose 1 µM) it is 124%.
With `COc1ccc(COc2ccc(Cc3cnc(N)nc3N)cc2OC)cc1` + Cc1cc(SCc2sc(-c3ccc(C(F)(F)F)c(F)c3)nc2C)ccc1OCC(=O)O [GW0742] (first compound 1 µM, partner dose 2 µM), the cell count worked out at 122%.
For the compound `Clc1ccc(Nc2nnc(Cc3ccncc3)c3ccccc23)cc1` [vatalanib] + C[As](C)SC[C@H](NC(=O)CC[C@H](N)C(=O)O)C(=O)NCC(=O)O [Darinaparsin] (first compound 2 µM, partner dose 0.4 µM), the cell count was determined as 109%.
Same read-out and setting: with `CC(C)C[C@H](NC(=O)[C@H](Cc1ccccc1)NC(=O)c1cnccn1)B(O)O` [Bortezomib] + N.N.[Cl][Pt][Cl] [cisplatin] (first compound 0.001 µM, partner dose 1.6 µM) the figure was 73%.

The subject of the next assay is SkMel28. The assay is described as above. As to conditions: library dose: low library concentration; 72 h.
`O=C1NC(=O)/C(=C/c2ccc(-c3ccc(F)cc3O)o2)S1` + O=C(Oc1ccc([N+](=O)[O-])cc1)N1CCC(C(O)(c2ccc3c(c2)OCO3)c2ccc3c(c2)OCO3)CC1 [JZL184] (first compound 1 µM, partner dose 1 µM): the cell count was found to be 86.6%.
Take `O=C(O)c1ccc2c(c1)nc(Nc1cccc(Cl)c1)c1ccncc12` + C[As](C)SC[C@H](NC(=O)CC[C@H](N)C(=O)O)C(=O)NCC(=O)O [Darinaparsin] (first compound 0.4 µM, partner dose 0.4 µM): the cell count was determined as 87.8%.
The compound `CN1CCN(c2ccc3nc(-c4c(N)c5c(F)cccc5[nH]c4=O)[nH]c3c2)CC1` [Dovitinib] + C/C(O)=C(\C#N)C(=O)Nc1cc(Br)ccc1Br [LFM-A13] (first compound 0.1 µM, partner dose 2 µM) had a cell count of 74.7%.
Take `O=C(O)c1ccc2c(c1)nc(Nc1cccc(Cl)c1)c1ccncc12` + Cc1cc(SCc2sc(-c3ccc(C(F)(F)F)c(F)c3)nc2C)ccc1OCC(=O)O [GW0742] (first compound 0.4 µM, partner dose 2 µM): the cell count is 115%.
In the case of `CN1CCN(c2ccc3nc(-c4c(N)c5c(F)cccc5[nH]c4=O)[nH]c3c2)CC1` [Dovitinib] + C[As](C)SC[C@H](NC(=O)CC[C@H](N)C(=O)O)C(=O)NCC(=O)O [Darinaparsin] (first compound 0.1 µM, partner dose 0.4 µM), the cell count turned out to be 87.9%.
On the same count and under the same terms, the figure for `Cc1cc(Nc2cc(N3CCN(C)CC3)nc(Sc3ccc(NC(=O)C4CC4)cc3)n2)n[nH]1` [Tozasertib] + N.N.[Cl][Pt][Cl] [cisplatin] (first compound 0.006 µM, partner dose 1.6 µM) is 92.8%.
For `CN1CCN(c2ccc3nc(-c4c(N)c5c(F)cccc5[nH]c4=O)[nH]c3c2)CC1` [Dovitinib] + O=C(Oc1ccc([N+](=O)[O-])cc1)N1CCC(C(O)(c2ccc3c(c2)OCO3)c2ccc3c(c2)OCO3)CC1 [JZL184] (first compound 0.1 µM, partner dose 1 µM), the cell count came to 85.8%.
Still for that read-out and setting: the figure for `Clc1ccc(Nc2nnc(Cc3ccncc3)c3ccccc23)cc1` [vatalanib] + C/C(O)=C(\C#N)C(=O)Nc1cc(Br)ccc1Br [LFM-A13] (first compound 2 µM, partner dose 2 µM) is 82.1%; for `CC(C)C[C@H](NC(=O)[C@H](Cc1ccccc1)NC(=O)c1cnccn1)B(O)O` [Bortezomib] + C[As](C)SC[C@H](NC(=O)CC[C@H](N)C(=O)O)C(=O)NCC(=O)O [Darinaparsin] (first compound 0.001 µM, partner dose 0.4 µM) it is 113%.
For `Cc1cc([N+](=O)[O-])ccc1NS(=O)(=O)c1cc(Cl)ccc1Cl` + O=C(Oc1ccc([N+](=O)[O-])cc1)N1CCC(C(O)(c2ccc3c(c2)OCO3)c2ccc3c(c2)OCO3)CC1 [JZL184] (first compound 1 µM, partner dose 1 µM), the cell count was 94.2%.
Compound `Cc1cc(Nc2cc(N3CCN(C)CC3)nc(Sc3ccc(NC(=O)C4CC4)cc3)n2)n[nH]1` [Tozasertib] + Cn1cc(C2=C(c3cn(C4CCN(Cc5ccccn5)CC4)c4ccccc34)C(=O)NC2=O)c2ccccc21 [Enzastaurin] (first compound 0.006 µM, partner dose 0.8 µM) displayed a cell count of 92.9%.
Still for that read-out and setting: the figure for `Cc1cc(Nc2cc(N3CCN(C)CC3)nc(Sc3ccc(NC(=O)C4CC4)cc3)n2)n[nH]1` [Tozasertib] + O=C(Oc1ccc([N+](=O)[O-])cc1)N1CCC(C(O)(c2ccc3c(c2)OCO3)c2ccc3c(c2)OCO3)CC1 [JZL184] (first compound 0.006 µM, partner dose 1 µM) is 90.5%; for `Oc1cc(-c2nc(-c3ccccc3)[nH]c2-c2ccncc2)ccc1Cl` + C/C(O)=C(\C#N)C(=O)Nc1cc(Br)ccc1Br [LFM-A13] (first compound 0.2 µM, partner dose 2 µM) it is 70.6%.
On the same count and under the same terms, with `O=C(O)C(=O)Nc1sc2c(c1C(=O)O)CCNC2` + O=C(Oc1ccc([N+](=O)[O-])cc1)N1CCC(C(O)(c2ccc3c(c2)OCO3)c2ccc3c(c2)OCO3)CC1 [JZL184] (first compound 1.66667 µM, partner dose 1 µM) the figure was 109%.
Still for that read-out and setting: the figure for `C#Cc1cccc(Nc2ncnc3cc(OCCOC)c(OCCOC)cc23)c1` [erlotinib] + C[As](C)SC[C@H](NC(=O)CC[C@H](N)C(=O)O)C(=O)NCC(=O)O [Darinaparsin] (first compound 0.8 µM, partner dose 0.4 µM) is 81.4%; for `Clc1ccc(Nc2nnc(Cc3ccncc3)c3ccccc23)cc1` [vatalanib] + O=C(Oc1ccc([N+](=O)[O-])cc1)N1CCC(C(O)(c2ccc3c(c2)OCO3)c2ccc3c(c2)OCO3)CC1 [JZL184] (first compound 2 µM, partner dose 1 µM) it is 85.5%; for `COc1cc2ncnc(Nc3ccc(Oc4ccccc4)cc3)c2cc1OC` + O=C(Oc1ccc([N+](=O)[O-])cc1)N1CCC(C(O)(c2ccc3c(c2)OCO3)c2ccc3c(c2)OCO3)CC1 [JZL184] (first compound 2 µM, partner dose 1 µM) it is 80%.
Take `Nc1ccn([C@@H]2O[C@H](CO)[C@@H](O)C2(F)F)c(=O)n1` [gemcitabine] + C[As](C)SC[C@H](NC(=O)CC[C@H](N)C(=O)O)C(=O)NCC(=O)O [Darinaparsin] (first compound 0.0004 µM, partner dose 0.4 µM): the cell count is 93.2%.
